Test results as given in the RNAGym collection of RNA variant scans (doi:10.1073/pnas.2313332121).
Variants at the floor of the assay are shown more often than the library holds them.

B1: TPR 5TU (parent)
chain: GGAUCUUCUCGAUCUAACAAAAAAGACAAAUCUGCCACAAAGCUUGAGAGCAUCUUCGGAUGCAGAGGCGGCAGCCUUCGGUGGCGCGAUAGCGCCAACGUUCUCAACUAUGACACGCAAAACGCGUGCUCCGUUGAAUGGAGUUUAUCAUG

Variants of: B1
Assay: polymerase ribozyme fitness, log enrichment relative to wild type (log ratio); higher = more active; in vitro selection for triplet polymerase activity
Summary of the method: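 A heterodimeric triplet polymerase ribozyme had each of its subunits mutagenized by PCR into a library, which was transcribed. One round of in vitro selection, done in triplicate, annealed each library with a biotinylated primer, its partner subunit and triplets, then incubated it frozen at −7 °C before gel excision of extended constructs, streptavidin-bead capture and RT-PCR. Fitness is the logarithm of genotype enrichment relative to wild-type enrichment, based on Illumina sequencing of inputs and outputs and inverse-variance-weighted replicate averages. A base-2 logarithm is used, and genotypes were kept only with ≥10 input reads and ≥1 read per output.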

Variant | polymerase ribozyme fitness (log ratio)
A37C C43G C93U C96G A97G | ≤ -4.2
A37C C54G U77C G83C | ≤ -4.2
C36A C96U U111G | ≤ -4.2
C36U U127G | ≤ -4.2
C38G G42C G59A C95G C105U | ≤ -4.2
C38U C116G U148A | -3.89
A37C A60U C76U U82C C95A C132G | ≤ -4.2
C36U G71A G94A | ≤ -4.2
C38U U82G C95G A98G U127G C131G | ≤ -4.2
A37U U56A U77A A98G C103A A142C | ≤ -4.2
A37U A142G G152U | -4.13
A37C G83A A115U C129A | ≤ -4.2
C38U U56A A60U C95A | -1.13
C36A A40C G94U A107U C116A A122U | ≤ -4.2
C36G A97G | -3.56
A39C G48U G80C U111G | ≤ -4.2
C36G G62C G84U | ≤ -4.2
A37U C51A G58A C95U G124U U134A | ≤ -4.2
A37C C38U U145C | 0.0837
A37C U53C C54U G83A G94A | ≤ -4.2
A39C U44G C75U C95U A119U G128U | ≤ -4.2
A37U A122U C129G G143A U145A | ≤ -4.2
A39C A40C A49C | ≤ -4.2
C38U C95A | -1.07

Variant | polymerase ribozyme fitness (log ratio)
C36U G58A C87A C131U G143A | ≤ -4.2
A37C U144A | -0.958
C36U U55A C69A G81A C95A A150U | ≤ -4.2
C36G A47C U55A U82G C87U U146C | ≤ -4.2
C36A A60C G71C C79A G84A A91G C93G | ≤ -4.2
A37G A52U G86C C114G G152C | ≤ -4.2
A39C G46C U55A G59C G83U G84U G124A | ≤ -4.2
A37G C108U C125G | ≤ -4.2
A37U A47C U55A C75G G80C C103A C116G A119U C125A G141C | ≤ -4.2
A37C A39U C76U G80C G92C | ≤ -4.2
C38U G48A C54A G83A C125G U135A | ≤ -4.2
C36U C99U U145A | -1.47
C36G A47G C95G | ≤ -4.2
C35U G48U U56G A60C G74A C96G U104G A107U | ≤ -4.2
C38G U56A G86U U130A | ≤ -4.2
A37C C54U A60C U61G C96U C99A G112A A115G | ≤ -4.2
C38U G46A C79A A98G U102G A107U A121G U130G | ≤ -4.2
C38U G88A A147U C149U U151G | ≤ -4.2
C38U C85G G88U C103A G126A | ≤ -4.2
A37U G88U G92C A122G G133U G143A A150U | -4.06
C36U A41G C95A A122G | -0.35
C36U G141U A142C | ≤ -4.2
C38U A49C C85U G92U C103A U111C U144C | ≤ -4.2
C36A C63U C69G U135C | ≤ -4.2

Variant | polymerase ribozyme fitness (log ratio)
C36A U56G C85U C93U G94C | ≤ -4.2
C36U C79A C87U A115C A122C C131G | ≤ -4.2
C35U U56C C63U A91U | ≤ -4.2
C36G U44C C57G U78G G94A G117C | ≤ -4.2
A39C C87G | ≤ -4.2
C36A G48A | ≤ -4.2
C35U G74A C95U C118A U134G U148A | ≤ -4.2
C38U A47C G59C G141A U148G | ≤ -4.2
C36U A60G G71U C95G G143A U144C | ≤ -4.2
A39C G42C G86A C116U C118U | ≤ -4.2
C35U G50U G59C A60U C85A G94C G141A | ≤ -4.2
C36U A73G U82G C125A A138U | ≤ -4.2
C38U U53A A106G A107C C125A | ≤ -4.2
C36U A64G C75G | ≤ -4.2
A37U A41C A47C G59U U90A C118A | ≤ -4.2
C38A G68A G74A C85G A107U U134G G143A | ≤ -4.2
A37U C79U G84U | ≤ -4.2
A39C A41C G86U U139G | ≤ -4.2
C38U A39U G88C C123A | ≤ -4.2
A39C C43U C96U C103A | ≤ -4.2
A37C A49C G59A C87A G140C | ≤ -4.2
C36A U55G U56A | ≤ -4.2
C38A A52G C79A A120C G124C G133C | ≤ -4.2
C38G A120U G140C A142C | ≤ -4.2

Variant | polymerase ribozyme fitness (log ratio)
A37C G48A C85U C96A | ≤ -4.2
C38A C118U A120C G141A | -0.525
C35U U55G C76G G133C U135G | ≤ -4.2
C36A A49C C54U G84A C105G C118A U151C | ≤ -4.2
A37C G62A C63U C72U A113G G128A | ≤ -4.2
C36U G50U C54U C99U | -4.14
A37C A40C U77G | ≤ -4.2
C38A C43A U55A C87U G117A | ≤ -4.2
C35U U78A C103G A115G G124A A147G | ≤ -4.2
C38A C72G A73U C87G | ≤ -4.2
C38U A41C G88A A137U | ≤ -4.2
C36U C85U C87U C95U C105G G117U | ≤ -4.2
C36A U109C C118U U134C A142U | ≤ -4.2
C38G U82G C96U A110G U111G G140U | ≤ -4.2
C38A U44A G86A G92A C132U G136U A138G | ≤ -4.2
C35U G88U U90A U101A | ≤ -4.2
C36G A41U C103G A119C A138G | ≤ -4.2
A39C G81C C85U C116A G141C | ≤ -4.2
C38A G68A C95U | ≤ -4.2
A39C U90C | ≤ -4.2
C38U C72A C87A A110G G152U | ≤ -4.2
A39C C85G A120G G126U | ≤ -4.2
C38U C72U C95G | -0.675
C38A U53A C57G C79U G86C U134A | ≤ -4.2

Variant | polymerase ribozyme fitness (log ratio)
A37G A47G G74C C76A G80U | ≤ -4.2
A37G C51U A66U G83A U151G | ≤ -4.2
C36A C57G U77C A119G | ≤ -4.2
C36U A66G C93A | ≤ -4.2
C36U C51U C99G | ≤ -4.2
C36A C99A G140C | ≤ -4.2
A39C G80C | ≤ -4.2
C38A C85U C108G U148C | ≤ -4.2
C36U C87G U134A | ≤ -4.2
C38U A52G C93G G117U | -3.91
C36G G94A G141C A150G | ≤ -4.2
A37U U55A C93G G124A C125G U134G | ≤ -4.2
C38U U90G C95A | ≤ -4.2
A39C U55A C118U | -2.2
A37C A47G G48A G58A G84U G136A | ≤ -4.2
A39C A47C G62A C85U A98U U134A | ≤ -4.2
A39C G133C U146A | -3.57
C36A C85U A89U C96G | ≤ -4.2
C38G U55A G58U A60U G86C G133U | ≤ -4.2
A37C C72U A91C G143A | ≤ -4.2
C38A A49C G88C C108G | ≤ -4.2
C38U G58A G59C U61A G80C A107G | ≤ -4.2
C36U A41G G83C G84U C116U | -4.09
C36A C75U C95G C103A U145G A150C | ≤ -4.2

Variant | polymerase ribozyme fitness (log ratio)
C38U C76A G84C U134A U146C | ≤ -4.2
A37G C54U U55A G86A A89U U109G A138G | ≤ -4.2
C36A U44A U55A U61A C76A C96A A122C C123A | ≤ -4.2
A37U A40C G67C U90G C96U A142G | ≤ -4.2
C38A U61C U109G U111A U135C | ≤ -4.2
A39C U44A G92A A106G A107G U146G | ≤ -4.2
C36G U90G C118U | ≤ -4.2
A37U G50A G74U A120C C129A G143C | ≤ -4.2
A39C A60C G86U | ≤ -4.2
C38A U78G C87U C103G G133U G141A | ≤ -4.2
C38U C54A A60U | -0.76
C36A C43U G81C C85A | ≤ -4.2
A37G G42C G88U A115G | ≤ -4.2
A37U A49G C93A G133U | ≤ -4.2
A37C C51U U61A U78G C95U A98G U130G C131U | ≤ -4.2
C36U G128C G140U | ≤ -4.2
A37C G92A U146G | -4.01
C38U U55G G83U U135C | -1.98
C38U G84U | -2.42
A37C G74U C76G C131U G140C | ≤ -4.2
A37C G80C G83A C99A U144A U145C | ≤ -4.2
C36U A40G C43G U55A A91C G126A G141U | ≤ -4.2
C36U G48A C57U G74A G84A C96U G112A G141A | ≤ -4.2
C38U G84U C93G A97U A120C | ≤ -4.2

Variant | polymerase ribozyme fitness (log ratio)
C36U A39U | -2.71
C36U C76U C85G | -2.42
A37G A49U C76G U127A G141A U144G | ≤ -4.2
A37U U55C G68A U78A C85U | ≤ -4.2
C38A U56G G59U U78C C95A U101C A110G G136U | ≤ -4.2
A39C A49G U55A C57A C93A | ≤ -4.2
A37C C96G U101G A150C U151A | ≤ -4.2
C38A G71A G136U U144G | ≤ -4.2
C35U C96U | -0.126
C35U C96G | -0.818
C36U G59C C131U | -0.515
A39C U145C | -1.66
C38A G50U C57U A64C G71C C95G C103A G128U U130G C149G | ≤ -4.2
A37G U53A U134G | -3.7
A37U C43U C87G U127G G136A | ≤ -4.2
C35U G58A A91G G133U | ≤ -4.2
C38U G50A A73U G126U | -3.21
A37G U78A C93G C116U | ≤ -4.2
A37C A60C G67C C76G | -3.82
A39C G46U U55G C99U C116G C125G A138C C149G | ≤ -4.2
A39C G92U C95A G112A U145G | ≤ -4.2
C38A C54A C63U G70U C75U C87A | ≤ -4.2
C35U G81U U82G G88U G94U U139C C149A | ≤ -4.2
